Reference: patent US7208293
Numbering of substitutions follows the chain as printed.

T1: human neutrophil elastase (human, UniProt P08246 30-247)
T1 construct: also called HNE; HNE beads
T1 sequence (looked up): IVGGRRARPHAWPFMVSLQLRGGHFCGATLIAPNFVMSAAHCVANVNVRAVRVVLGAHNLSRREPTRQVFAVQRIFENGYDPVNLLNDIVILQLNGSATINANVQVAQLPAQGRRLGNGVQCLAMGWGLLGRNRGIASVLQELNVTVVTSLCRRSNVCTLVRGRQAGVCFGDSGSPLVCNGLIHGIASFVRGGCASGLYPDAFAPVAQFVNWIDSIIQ

B1: EpiNE7.21 display phage (designed binder)
chain: RPDFCLEPPYTGPCVAMFPRYFYNAKAGLCQTFHYGGCWGQGNNFKSAEDCMRTCGGAGAAETVESCLAKPHTENSFTNVWKDDKTLDRYANYEGCLWNATGVVVCTGDETQCYGTWVPIGLAIPENEGGGSEGGGSEGGGSEGGGTKPPEYGDTPIPGYTYINPLDGTYPPGTEQNPANPNPSLEESQPLNTFMFQNNRFRNRQGALTVYTGTVTQGTDPVKTYYQYTPVSSKAMYDAYWNGKFRDCAFHSGFNEDPFVCEYQGQSSDLPQPPVNAGGGSGGGSGGGSEGGGSEGGGSEGGGSEGGGSGGGSGSGDFDYEKMANANKGAMTENADENALQSDAKGKLDSVATDYGAAIDGFIGDVSGLANGNGATGDFAGSNSQMAQVGDGDNSPLMNNFRQYLPSLPQSVECRPFVFSAGKPYEFSIDCDKINLFRGVFAFLLYVATFMYVFSTFANILRNKES
notes: gene III display, KLMUT library
B2: EpiNE7.22 display phage (designed binder)
chain: B1 chain with Q41E
notes: as for B1
B3: EpiNE7.24 display phage (designed binder)
chain: B1 chain with H34K, W39H, Q41N
notes: as for B1
B4: EpiNE7.25 display phage (designed binder)
chain: B1 chain with H34P, G40A, Q41K, S47L
notes: as for B1
B5: EpiNE7.26 display phage (designed binder)
chain: B1 chain with H34K, Q41H
notes: as for B1
B6: EpiNE7.27 display phage (designed binder)
chain: B1 chain with H34N, Q41K
notes: as for B1
B7: EpiNE7.28 display phage (designed binder)
chain: B1 chain with H34T, W39L, Q41H
notes: as for B1
B8: EpiNE7.29 display phage (designed binder)
chain: B1 chain with H34T, W39L, Q41Y
notes: as for B1
B9: EpiNE7.30 display phage (designed binder)
chain: B1 chain with H34K, G40A, Q41E
notes: gene III display, KLMUT library; also called EpiNE7.34; EpiNE7.35
B10: EpiNE7.32 display phage (designed binder)
chain: B1 chain with H34G, Q41E
notes: as for B1
B11: EpiNE7.33 display phage (designed binder)
chain: B1 chain with H34E, G40A, Q41N
notes: as for B1
B12: EpiNE7.37 display phage (designed binder)
chain: B1 chain with H34M, W39Q, Q41K
notes: as for B1
B13: EpiNE7.38 display phage (designed binder)
chain: B1 chain with H34Y, G40A, Q41K
B14: EpiNE7.39 display phage (designed binder)
chain: B1 chain with H34M, Q41D
notes: as for B1
B15: EpiNE7.40 display phage (designed binder)
chain: B1 chain with H34T, W39H, Q41N
notes: as for B1

molecular target: T1, human neutrophil elastase; assay: clone from the pH 2.0 eluate, third round of the second fractionation of the KLMUT library on HNE beads

Binder | binding result
B1 | binds
B2 | binds
B3 | binds
B4 | binds
B5 | binds
B6 | binds
B7 | binds
B8 | binds
B9 | binds
B10 | binds
B11 | binds
B12 | binds
B13 | binds
B14 | binds
B15 | binds
